Positions count from the first letter of the chain named.
T1: 개 Tie2 단백질 (dog, UniProt A0A8I3S0B4 27-1128)
T1 construct: whole, on cells; also called dog Tie2
T1 sequence: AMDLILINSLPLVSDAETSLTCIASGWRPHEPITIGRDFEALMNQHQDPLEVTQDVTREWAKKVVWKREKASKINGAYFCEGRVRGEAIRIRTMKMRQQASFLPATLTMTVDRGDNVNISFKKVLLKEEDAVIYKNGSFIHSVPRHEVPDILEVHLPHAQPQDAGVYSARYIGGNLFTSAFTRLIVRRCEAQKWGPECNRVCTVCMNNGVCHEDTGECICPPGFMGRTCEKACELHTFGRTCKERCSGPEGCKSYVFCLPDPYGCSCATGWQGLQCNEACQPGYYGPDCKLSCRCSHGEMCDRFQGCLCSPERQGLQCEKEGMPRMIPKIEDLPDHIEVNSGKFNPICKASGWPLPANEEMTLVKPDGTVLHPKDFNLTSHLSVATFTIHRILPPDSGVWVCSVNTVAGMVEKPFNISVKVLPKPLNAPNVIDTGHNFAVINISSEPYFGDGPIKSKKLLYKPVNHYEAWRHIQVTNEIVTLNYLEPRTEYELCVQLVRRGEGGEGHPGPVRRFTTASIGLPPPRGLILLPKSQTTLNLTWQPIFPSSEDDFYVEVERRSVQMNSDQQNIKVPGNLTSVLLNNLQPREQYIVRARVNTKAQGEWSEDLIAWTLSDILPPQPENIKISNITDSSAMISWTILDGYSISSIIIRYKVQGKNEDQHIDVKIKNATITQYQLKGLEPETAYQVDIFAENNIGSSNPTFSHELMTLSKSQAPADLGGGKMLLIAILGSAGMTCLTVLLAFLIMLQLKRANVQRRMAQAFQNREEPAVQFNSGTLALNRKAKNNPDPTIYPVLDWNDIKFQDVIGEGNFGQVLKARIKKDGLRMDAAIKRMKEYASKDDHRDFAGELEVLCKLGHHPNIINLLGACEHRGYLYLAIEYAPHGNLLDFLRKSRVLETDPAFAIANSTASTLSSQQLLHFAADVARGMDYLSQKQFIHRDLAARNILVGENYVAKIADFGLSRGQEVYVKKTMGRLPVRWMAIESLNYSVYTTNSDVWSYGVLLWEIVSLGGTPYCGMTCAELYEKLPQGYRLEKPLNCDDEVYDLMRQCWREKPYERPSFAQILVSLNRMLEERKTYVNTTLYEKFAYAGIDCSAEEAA

T2: 랫 Tie2 단백질 (rat, UniProt A0ABK0L6J5 19-1116)
T2 construct: whole, on cells; also called rat Tie2
T2 sequence: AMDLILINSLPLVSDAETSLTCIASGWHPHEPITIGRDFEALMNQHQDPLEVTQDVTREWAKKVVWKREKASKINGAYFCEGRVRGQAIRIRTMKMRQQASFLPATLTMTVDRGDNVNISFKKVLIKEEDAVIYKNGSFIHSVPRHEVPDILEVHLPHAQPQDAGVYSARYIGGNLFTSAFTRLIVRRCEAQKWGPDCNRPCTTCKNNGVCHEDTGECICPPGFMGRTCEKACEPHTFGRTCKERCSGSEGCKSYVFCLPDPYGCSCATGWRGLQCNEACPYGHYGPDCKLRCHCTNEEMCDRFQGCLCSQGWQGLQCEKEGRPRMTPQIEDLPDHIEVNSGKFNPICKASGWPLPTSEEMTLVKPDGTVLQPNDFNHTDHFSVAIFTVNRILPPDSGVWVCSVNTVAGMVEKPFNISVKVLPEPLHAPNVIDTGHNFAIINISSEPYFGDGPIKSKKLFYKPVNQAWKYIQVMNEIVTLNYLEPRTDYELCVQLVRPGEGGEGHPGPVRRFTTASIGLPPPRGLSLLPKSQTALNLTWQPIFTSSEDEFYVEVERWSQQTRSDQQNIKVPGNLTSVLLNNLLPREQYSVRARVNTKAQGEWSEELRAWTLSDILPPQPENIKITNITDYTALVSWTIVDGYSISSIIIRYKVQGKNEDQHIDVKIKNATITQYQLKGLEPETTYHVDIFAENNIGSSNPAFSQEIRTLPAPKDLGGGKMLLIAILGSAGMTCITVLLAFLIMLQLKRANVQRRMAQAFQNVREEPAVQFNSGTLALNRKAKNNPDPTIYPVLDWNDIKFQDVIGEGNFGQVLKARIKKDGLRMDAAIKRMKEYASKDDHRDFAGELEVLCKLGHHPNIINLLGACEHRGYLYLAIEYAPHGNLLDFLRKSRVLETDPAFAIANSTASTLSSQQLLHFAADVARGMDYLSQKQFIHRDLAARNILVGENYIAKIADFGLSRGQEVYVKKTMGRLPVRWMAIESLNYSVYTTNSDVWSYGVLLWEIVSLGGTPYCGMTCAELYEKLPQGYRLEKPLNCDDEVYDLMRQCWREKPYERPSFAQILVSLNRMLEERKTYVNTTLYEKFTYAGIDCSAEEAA

T3: 마우스 Tie2 단백질 (mouse, UniProt Q02858 23-1122)
T3 construct: whole, on cells; also called mouse Tie2
T3 sequence (looked up): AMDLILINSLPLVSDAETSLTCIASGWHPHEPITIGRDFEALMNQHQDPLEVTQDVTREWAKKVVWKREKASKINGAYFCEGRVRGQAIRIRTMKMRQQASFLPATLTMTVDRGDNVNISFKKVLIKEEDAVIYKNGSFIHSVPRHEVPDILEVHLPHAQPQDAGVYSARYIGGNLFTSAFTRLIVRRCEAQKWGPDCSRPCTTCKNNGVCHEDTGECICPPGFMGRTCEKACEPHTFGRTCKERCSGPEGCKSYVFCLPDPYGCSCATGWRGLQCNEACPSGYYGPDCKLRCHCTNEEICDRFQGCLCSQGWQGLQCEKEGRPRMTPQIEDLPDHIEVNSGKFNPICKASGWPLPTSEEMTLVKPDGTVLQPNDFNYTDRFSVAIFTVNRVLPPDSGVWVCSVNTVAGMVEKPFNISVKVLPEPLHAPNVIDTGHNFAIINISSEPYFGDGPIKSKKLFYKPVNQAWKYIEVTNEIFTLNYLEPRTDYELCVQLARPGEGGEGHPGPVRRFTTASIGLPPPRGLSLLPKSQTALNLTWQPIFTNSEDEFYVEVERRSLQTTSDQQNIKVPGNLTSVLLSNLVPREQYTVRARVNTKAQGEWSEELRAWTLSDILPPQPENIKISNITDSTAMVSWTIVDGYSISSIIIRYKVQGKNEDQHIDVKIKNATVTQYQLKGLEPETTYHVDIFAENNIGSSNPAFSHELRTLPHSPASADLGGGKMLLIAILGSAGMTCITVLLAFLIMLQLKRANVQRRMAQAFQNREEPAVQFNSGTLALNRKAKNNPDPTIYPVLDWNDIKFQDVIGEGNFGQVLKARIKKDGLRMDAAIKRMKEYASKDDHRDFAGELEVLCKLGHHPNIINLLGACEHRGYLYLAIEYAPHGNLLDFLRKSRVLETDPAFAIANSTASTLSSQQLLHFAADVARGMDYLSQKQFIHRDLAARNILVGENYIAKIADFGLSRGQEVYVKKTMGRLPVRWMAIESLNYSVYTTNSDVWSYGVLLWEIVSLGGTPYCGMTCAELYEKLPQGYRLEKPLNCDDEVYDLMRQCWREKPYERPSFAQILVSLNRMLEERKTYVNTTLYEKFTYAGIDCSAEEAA

B1: Ang1mab1 (antibody, human IgG1, kappa)
heavy: QVQLVQSGGGVVQPGRSLRLSCAASGLTFSNYAMHWVRQAPGKGLEWVAVISYDGENKYYADSVKGRFTISRDNSKNMLQLQMNRLRSEDTAVYYCATPKGGALEIWGQGTVITVSS[sequence of human IgG1 constant region omitted]
light: DIQMTQSPDSLAVSLGERATINCKSSQSVLYSSNNKNYLAWYQQKPGQPPNLLMYWASTRESGVPDRFSGSGSGTDFTLTISSLQAEDVAVYYCQQYYSAPITFGQGTRLEIKRTVAAPSVFIFPPSDEQLKSGTASVVCLLNNFYPREAKVQWKVDNALQSGNSQESVTEQDSKDSTYSLSSTLTLSKADYEKHKVYACEVTHQGLSSPVTKSFNRGEC
notes: Its matched control is called IgG1 control; also called 제1 기본 항체; 기본 항체 Ang1mab1
B2: Ang1mab4 (antibody, human IgG4 S228P, kappa)
heavy: QVQLVQSGGGVVQPGRSLRLSCAASGLTFSNYAMHWVRQAPGKGLEWVAVISYDGENKYYADSVKGRFTISRDNSKNMLQLQMNRLRSEDTAVYYCATPKGGALEIWGQGTVITVSSASTKGPSVFPLAPCSRSTSESTAALGCLVKDYFPEPVTVSWNSGALTSGVHTFPAVLQSSGLYSLSSVVTVPSSSLGTKTYTCNVDHKPSNTKVDKRV[sequence of human IgG4 Fc with S228P (EU numbers) omitted]
light: B1 light
notes: also called 제1 기본 항체; 기본 항체 Ang1mab4
B3: Ang1mab4(L1V03A) (antibody, human IgG4 S228P, kappa)
heavy: B2 heavy
light: B1 light with V29A
notes: Variant of Ang1mab4; frameworks and constant regions from Ang1mab4; also called 변이 항체
B4: Ang1mab4(L1Q01A) (antibody, human IgG4 S228P, kappa)
heavy: B2 heavy
light: B1 light with Q27A
notes: as for B3
B5: Ang1mab4(L1Y05F) (antibody, human IgG4 S228P, kappa)
heavy: B2 heavy
light: B1 light with Y31F
notes: as for B3
B6: Ang1mab4(L1S07A) (antibody, human IgG4 S228P, kappa)
heavy: B2 heavy
light: B1 light with S33A
notes: as for B3
B7: Ang1mab4(H1G01A) (antibody, human IgG4 S228P, kappa)
heavy: B2 heavy with G26A
light: B1 light
notes: Variant of Ang1mab4; also called 변이 항체
B8: Ang1mab4(H1V12A) (antibody, human IgG4 S228P, kappa)
heavy: B2 heavy with V37A
light: B1 light
notes: as for B3
B9: Ang1mab4(H1L02A) (antibody, human IgG4 S228P, kappa)
heavy: B2 heavy with L27A
light: B1 light
notes: as for B3
B10: Ang1mab4(H1S05A) (antibody, human IgG4 S228P, kappa)
heavy: B2 heavy with S30A
light: B1 light
notes: as for B3

The binders below were run against T1, 개 Tie2 단백질 (assay: flow cytometry, HEK293T cells transfected with dog Tie2).

Binding result, no binding (tested: 5ug/ml):
B1
B2
B3
B4
B5
B6
B7
B8
B9
B10

Each binder was assayed against T2, 랫 Tie2 단백질 (assay: flow cytometry, HEK293T cells transfected with rat Tie2).

Binding result, no binding (tested: 5ug/ml):
B1
B2
B3
B4
B5
B6
B7
B8
B9
B10

Each binder was assayed against T3, 마우스 Tie2 단백질 (assay: flow cytometry, HEK293T cells transfected with mouse Tie2).

Binding result, no binding (tested: 5ug/ml):
B1
B2
B3
B4
B5
B6
B7
B8
B9
B10

From patent publication KR20220059924A (dated 2022)
